Results as given in the supplement of paper PMC3334620.
Over roughly 33,000 sequences, “E-score (-0.5 to 0.5)” has its median near -0.016; the highest 2% begin near 0.31. The list shows a part of the results.

target: Cst6 (UniProt P40535); test: PBM E-score (8-mer binding enrichment) (E-score (-0.5 to 0.5)); higher = stronger / more preferred TF binding; most listed sequences are background and not binding sites; conditions: protein concentration: 200 nM; construct: GST-DNA-binding domain
How it was run: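 Yeast transcription factors, full-length or as DNA-binding domains, were expressed with a GST tag using PURExpress in vitro transcription/translation. At about 100-200 nM they were applied to universal all-10-mer Agilent arrays, double-stranded by primer extension on fresh or once-stripped slides. Fluorescent anti-GST detected bound protein, and masliner normalised the scans. E-scores for ungapped eight-base words, pooled with reverse complements, came from the Universal PBM Analysis Suite.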

Sequence | PBM E-score
AATGACGT | 0.495
ATAGCTAT | -0.0877
CATCCGCG | 0.151
TGATCCAA | 0.149
ACTATACA | 0.00344
CGAGGGTA | -0.225
TAATATGA | 0.305
CGTAATGA | 0.402
ATAAGGAT | 0.184
ACAGCTTA | -0.0136
CTTGAAGA | 0.0215
CTCAATAC | 0.109
GTTCATGA | 0.241
AGCGCATG | -0.197
CATTAGCG | -0.0563
AGCAGAAA | 0.123
ATGCTCAG | -0.0674
AGAGATGA | 0.196
GATTCCTA | -0.0381
ACTAGAAA | 0.18
AACCCAAC | -0.0123
TAGTCCCA | -0.259
ACTTTGAC | 0.0911
ATGAAGCA | -0.0983
CAACACCA | 0.00074

Sequence | PBM E-score
GGTGATGA | 0.362
GGAGATGA | 0.00363
AAACGAAC | 0.204
CGCTACCA | -0.113
TACGAGCA | -0.231
GTTGCTGA | 0.111
CCTTTTCC | -0.113
ACAAACAC | 0.213
GGTCAACA | -0.0567
CATTTTGC | 0.0672
CATCAACC | 0.148
AACCAGCG | 0.00295
AGGGATAC | -0.12
GACGTAGC | 0.166
ACGCTACG | 0.0743
CTGTCCTC | -0.198
GTCAGGTA | 0.12
ATAGAGCA | -0.00911
CGTAAACA | 0.262
GTATGTGA | 0.126
CATATGTA | 0.132
AGCTGACG | 0.359
GGACCAAC | -0.161
CGACATGA | 0.0532
TAGCTTCA | -0.147

Sequence | PBM E-score
CTACTTCC | 0.0887
TAGTGATA | 0.088
CGAGGTAC | -0.121
AAATGGGC | -0.133
ATATTCTA | 0.257
CTTCATTA | 0.185
ATTTAAGC | 0.196
CGAATCCA | -0.176
TGTATACA | 0.131
GTGCATTA | 0.131
GCAGCCTA | -0.125
CACATCGG | -0.138
GGCACCTA | -0.116
AGCATCTA | -0.052
AGAGAATA | 0.0833
AAACATTG | 0.0275
AGTAATTC | 0.189
AGTCGAGC | -0.155
TCCCTTCA | -0.0635
ACACCCAG | -0.153
AATAAGGG | 0.0454
CTATCCAA | -0.059
AACATCGG | -0.122
CCTTTCCA | -0.0521
GCCTCTAA | -0.167

Sequence | PBM E-score
CGATAACC | -0.153
GGTCAGAC | -0.149
ATCCATCA | 0.0668
AATACTCC | -0.177
CAGTGCCC | -0.0146
CGTCGGGC | -0.218
GAACTAAC | 0.0294
CTTATCCC | -0.0716
ACTGAGGC | -0.102
AATCTATC | -0.0282
AACTGGAT | 0.0558
GCACGGGA | -0.0634
GACCTTTA | 0.0241
CTGCCCGC | -0.169
CGGTTATA | -0.00706
GAAGCGTA | -0.102
CTGACTCA | 0.0191
CAGTACGC | -0.0344
CAATGTGG | -0.0313
ACTAGATA | 0.124
ATAGTTTC | 0.104
ATAAAGTG | 0.124
CCTAGGAA | -0.0351
GATGTCTA | 0.0748
AATGGAAT | 0.144

Sequence | PBM E-score
CCTTTACG | 0.186
CTGAAGCC | -0.122
CAGTCGAA | -0.161
AAGTTATT | 0.204
ACGCTAAA | 0.051
GGCCATCA | -0.0845
ACCTTCAT | -0.0967
GATCTGAA | -0.109
GGCGAGAC | -0.0737
ATTTTGTC | 0.19
AGAAATAT | 0.221
AATAACTA | 0.185
CGTCGAGA | 0.0993
CGGAGTAA | -0.0229
GACGTGGC | 0.049
ATTAAAAT | 0.261
CTTATTCA | 0.0605
TAATAAGA | 0.16
CGGGACTC | -0.122
ATCCCTGG | -0.179
GCTTTGGA | 0.06
AACATCGC | -0.186
CAACTCCA | -0.0388
AATTGGAT | 0.125
AAACACGC | 0.107

Sequence | PBM E-score
CAAGTAGG | -0.213
GACCTCTA | -0.153
GACGATCA | 0.0657
ACGTCGCG | 0.259
GTCATAAA | 0.331
AGCATCGA | -0.0476
AACATCTT | -0.0135
TGTGCGAA | -0.0655
ATGCAAGA | 0.102
GAAGTCTA | -0.208
ACCAGGCG | -0.144
AGGATAAT | 0.103
GCAATGAC | 0.3
CGGTAGTC | -0.304
TCCCACAA | -0.0349
CCATTAAG | 0.0421
AAAACATT | 0.165
GGGTTTTA | -0.104
ACGCCCGG | -0.211
CGGGGCTA | -0.118
AAGTCTTG | -0.0973
CTTTACTC | 0.103
AAAAGCTA | 0.0299
ATAAAGTA | 0.219
CACCCTCA | -0.212

Sequence | PBM E-score
AGTACCCA | -0.222
CTGCTCCC | -0.174
TCCTTAAA | 0.00906
TCCGCAGA | -0.116
ATCCGCGC | 0.0167
AATCTCGG | -0.0737
GATCAACA | 0.165
CGTGAGAC | -0.0301
AAACCTGG | -0.0966
CACGAGCA | -0.0684
AAATCACG | 0.203
CCCTCAGC | -0.241
CCCGCGGC | 0.109
GGCCTCAA | 0.033
AGCCCCGG | -0.184
CATACATG | 0.0541
GGGCGCGA | -0.0149
CTCCAAGC | -0.182
AGAGGAAG | -0.191
CAGCCTCC | -0.21
ATGTTACG | 0.268
ACTCGCAA | 0.129
CTACTAGC | 0.00769
ACGACCCC | -0.179
GGCCCCCA | -0.382

Sequence | PBM E-score
ACTCAAAC | 0.158
GACTTACC | -0.19
CTCAGCGC | -0.151
GGGGGGTA | -0.244
AACAATTG | 0.0517
AACGGCAT | 0.346
ACAACAGT | -0.0491
CAGATGAC | 0.383
GGCCGCGA | -0.141
AGGAATTG | 0.129
CCGAGTAG | -0.111
ATCCCGGG | -0.127
CAGCTGAA | 0.0118
TCTTCACA | 0.113
CGCACAAC | -0.114
ATCTCCGA | -0.0182
ATGAAGCC | 0.114
GTGATATA | 0.159
CACCTAGC | -0.191
ACTGAGTC | -0.108
CTTACCAA | 0.128
CTATACCC | -0.169
TGTCACAA | 0.254
ACTAACCT | 0.0919
CGGACGAG | -0.263

Sequence | PBM E-score
AATGAATA | 0.0769
GTACCGCA | 0.0944
CCAACACG | 0.0423
GCCTGTCC | -0.331
GATGCTGA | -0.085
ACGGAAAG | 0.0491
GACGCTAC | 0.214
GTCCTGGA | -0.265
AAAATCGG | -0.00802
ACCTGTAT | -0.099
CCGCGTTC | 0.0757
GACGATGA | 0.301
CAGGGGGC | -0.269
AGCGGTAG | -0.21
GCCCGCGA | -0.173
CTTCTCCA | -0.211
CATATCGG | -0.0127
AGTTCCCA | -0.00984
AGGGTCCG | -0.308
